# Results from publication PMC6919601, “Identification of Plasmodium dipeptidyl aminopeptidase allosteric inhibitors by high throughput screening” (PLoS ONE, 2019).
# Out of some 110,000 compounds screened, about 230 (0.21%) showed an effect of 50% or more. This is one part of the list.
# Target: DPAP1 (Plasmodium falciparum, UniProt Q8IIJ9)
# Assay: primary screen, percent inhibition; read by cleavage of a fluorogenic dipeptide substrate; higher = more effect of the substance
# Parameters: species or system P. falciparum D10 trophozoite lysates; single well
# 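Note: 30 min substrate incubation versus DMSO and 10 µM JCP410 controls.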
# DPAP1, sequence (Q8IIJ9 whole entry, looked up): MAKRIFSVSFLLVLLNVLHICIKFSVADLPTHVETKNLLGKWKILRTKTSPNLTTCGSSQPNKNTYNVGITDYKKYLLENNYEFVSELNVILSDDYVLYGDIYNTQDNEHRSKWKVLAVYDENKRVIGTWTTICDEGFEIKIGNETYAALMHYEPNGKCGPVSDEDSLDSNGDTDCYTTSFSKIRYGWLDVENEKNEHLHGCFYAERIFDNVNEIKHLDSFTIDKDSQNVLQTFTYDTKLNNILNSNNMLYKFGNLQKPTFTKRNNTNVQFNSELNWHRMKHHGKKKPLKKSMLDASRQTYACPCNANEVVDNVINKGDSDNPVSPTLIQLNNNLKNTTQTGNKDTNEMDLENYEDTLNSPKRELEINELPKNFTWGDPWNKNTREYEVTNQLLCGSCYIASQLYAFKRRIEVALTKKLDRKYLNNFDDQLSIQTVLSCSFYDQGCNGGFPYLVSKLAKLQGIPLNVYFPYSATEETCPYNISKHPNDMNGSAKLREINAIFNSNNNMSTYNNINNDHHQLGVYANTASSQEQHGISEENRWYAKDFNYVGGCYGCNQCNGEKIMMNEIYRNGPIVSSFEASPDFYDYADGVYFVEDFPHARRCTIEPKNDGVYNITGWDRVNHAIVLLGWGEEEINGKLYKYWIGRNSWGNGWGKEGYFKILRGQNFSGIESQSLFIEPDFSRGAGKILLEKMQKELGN
row,Compound,% Inhibition @ 10 uM [%]
1,O=C(CSc1nc2ccc(NC(=O)c3ccccc3F)cc2s1)NC1CC1,-3.19
2,CC1=C(C(=O)Nc2ccccc2)C(c2ccccc2)N2C(=O)CSC2=N1 (stereo not drawn),2.09
3,Cc1cccc(NCN2C(=O)C3C4C=CC(C4)C3C2=O)c1 (stereo not drawn),-7.61
4,Cc1ccc(S(=O)(=O)NCC/N=C/c2c[nH]c3ccccc23)cc1,3.72
5,CCCc1[nH]nc2c1C(=O)CC(CC(C)SCC)C2 (stereo not drawn),-6.29
6,Cc1ccc2c(c1Br)C1(C(=O)N2)C(C#N)=C(N)OC2=C1C(=O)CC(c1ccco1)C2 (stereo not drawn),5.67
7,CC1CC(NC(=O)C2C3CCC(O3)C2C(=O)O)CC(C)(C)C1 (stereo not drawn),0.76
8,Cc1ccc(C)c(-c2csc(NC(=O)c3ccnn3C)c2C#N)c1,1.43
9,C=CCOc1ccc(/C=c2\sc3nc(-c4ccccc4OC)nn3c2=O)cc1,0.561
10,CCCSc1nnc2nc3c(nn12)c1ccccc1n3C,0.415
11,COc1ccc(Cl)cc1/C=C1\S/C(=N/c2ccc(C(=O)O)cc2)N(C)C1=O,-9.45
12,N#Cc1cnn2c(C(F)(F)F)cc(C34CC5CC(CC(C5)C3)C4)nc12,-0.99
13,COc1ccc2cc(C=O)c(O)nc2c1,5.88
14,CC(C)CC1NC(=O)C(C#N)=C(SCc2ccccc2)S1 (stereo not drawn),-5.01
15,CC(NC(=O)c1ccccc1NC(=O)c1ccc(CN2CCOCC2)cc1)c1ccccc1 (stereo not drawn),-6.07
16,Cc1ccc(NC(=O)c2c([N+](=O)[O-])ncn2C)cc1,1.24
17,Cc1ccc(CNC(=O)Nc2nnc(N3CCCC(C)C3)s2)cc1 (stereo not drawn),-1.08
18,CCCSc1ccc2[nH]c(NC(=O)CSc3nc(SC)ns3)nc2c1,0.221
19,CCN1C(=O)/C(=C/c2c(OC)cc(OC)cc2OC)C(=O)NC1=S,-6.22
20,CC1CCCC(C)N1C(=O)C1CC(c2ccc(F)cc2)=NO1 (stereo not drawn),-5.79
21,CN1C(=O)NC(=O)/C(=C/c2cccc(OCC(=O)O)c2)C1=O,2.94
22,CC(NC(=O)CN1C(=O)c2cccc3cccc1c23)c1ccccc1 (stereo not drawn),-5.35
23,CCCCCCCCCC(=O)c1c(C)[nH]c(C(=O)OCC)c1C,-2.51
24,CCN(CC)Cc1nc(O)c2ccccc2n1,-3.04
25,CC1(C)CC2CC(C)(CN2C(=O)c2cc(-c3ccc(O)cc3)on2)C1 (stereo not drawn),0.0654
26,Cc1ccc(N2CCN(C(=O)c3ccccc3NC(=O)C3CC=CCC3C(=O)O)CC2)cc1 (stereo not drawn),2.48

row,Compound,% Inhibition @ 10 uM [%]
1,CCn1ncc(CNC(=O)c2cc3nc(-c4ccc(C)c(C)c4)cc(C(F)(F)F)n3n2)c1C,7.04
2,COc1ccc(CNC(=O)C(NS(=O)(=O)c2cccs2)c2ccccc2)cc1 (stereo not drawn),0.0654
3,CN(CCC#N)C(=O)c1cc2c(s1)-c1ccccc1OC2,-4.85
4,CCOCCCNC(=O)C(c1ccc(C)cc1)N(Cc1cccs1)C(=O)c1ccc(O)nc1 (stereo not drawn),-5.57
5,Oc1nc(SCc2ccccc2F)nc2c1CCCC2,-3.94
6,Cc1nc(O)c2c(n1)OC(N)=C(C#N)C2c1ccccc1Cl (stereo not drawn),-2.18
7,CCN1CCN(C(=O)c2cc(-c3ccc(F)cc3)no2)CC1,4.59
8,O=C1C2ON(c3ccc(Cl)cc3)C(c3ccco3)C2C(=O)N1Cc1ccccc1 (stereo not drawn),-5.07
9,CCOCCCNC(=O)c1ccc2c(c1)C1C3CCC(C3)C1C(c1ccccc1)N2 (stereo not drawn),1.92
10,CN(C)CCN(C(=O)COc1ccc(Cl)cc1)c1nc2cc3c(cc2s1)OCO3,2.72
11,O=S(=O)(Nc1ccc(Br)cc1)c1ccc(Br)cc1,-5.23
12,CC(=O)c1ccc(NC(=O)/C=C/c2ccc3c(c2)OCO3)cc1,-2.12
13,N=C(NC(=O)c1ccccc1)N1CCC(C(N)=O)(N2CCCCC2)CC1,4.83
14,Cc1cccc(OCCCCn2c(C)nc3ccccc32)c1,1.12
15,CC(C)CN1CC1C(=O)NCc1ccccc1 (stereo not drawn),0.132
16,CCCc1cc(C(=O)NCc2ccccc2)no1,-7.15
17,COc1ccc(-c2nn(C)c3sc(C(=O)NCc4ccc(F)cc4)cc23)cc1OC,1.02
18,CC(C(=O)NCCC1=CCCCC1)n1c(=O)c2cccn2c2cccnc21 (stereo not drawn),-2.39
19,O=C(Nc1nc[nH]n1)c1ccc(C(=O)Nc2nc[nH]n2)cc1,-2.63
20,COc1cc(C(=O)N2CCN(C(=O)c3cccnc3)CC2)cc(OC)c1OC,-3.02
21,Cc1ccc(-n2ncc(C(=O)Nc3cccnc3)c2C2CCN(C(=O)OC(C)(C)C)CC2)c(C)c1,-2.72
22,Cc1ccccc1-n1nnc(-c2nc(-c3cccs3)no2)c1N,-0.485
23,O=C1OC(c2cc(F)c(F)cc2Cl)=N/C1=C\c1ccccc1,2.92
24,CCCCOc1ccc(C2SCC(=O)Nc3c2c(C)nn3-c2ccccc2)cc1 (stereo not drawn),-11.6
25,Cc1coc2c1c(C)cc1oc(=O)c(CC(=O)N3CCCC3)c(C)c12,0.895
26,O=C(NCc1ccccc1F)c1nc(Cn2cc(Br)cn2)no1,-2.05

row,Compound,% Inhibition @ 10 uM [%]
1,Cc1ccc(C)n1-c1nnc(N2CCC(C(=O)NC3CCN(Cc4ccccc4)CC3)CC2)s1,-0.522
2,CC(C)C[C@H](NC(=O)c1ccc(OC2C=CCCC2)cc1)C(=O)NCC#N (stereo partly drawn),1.71
3,CCN(CC)C(=O)CN1C(=O)COCC1=O,1.63
4,O=C1NC(c2ccc(OC(F)F)cc2)C(C(=O)c2ccccc2)C(O)(C(F)(F)F)N1 (stereo not drawn),0.873
5,CCOc1ccc(NC(=O)c2ccc(Cn3nc(C)cc3C)o2)cc1,7.76
6,O=C(NCc1noc2ccccc12)Nc1cccnc1Cl,1.95
7,Cc1[nH]c2ccccc2c1C(C#N)(C#N)C1C(=O)c2ccccc2C1=O,5.98
8,CC1=CC(C)C(C2OCC(CN3CCCCC3)O2)C(C)C1 (stereo not drawn),3.16
9,Cc1ccc(S(=O)(=O)N(CC(=O)N2CCCCCC2)c2ccc(Cl)cc2)cc1,-4.43
10,O=C1NC(=S)/C(=C\c2ccccc2)S1,-6.7
11,CCCN(Cc1cccs1)C(=O)NCc1ccccc1,-2.85
12,CC1=CCC2C(=O)N(c3ncccn3)C(=O)C2C1 (stereo not drawn),0.275
13,CC(=O)c1cnn(-c2cc(Oc3ccccc3C)ncn2)c1C,1.59
14,Cc1ccccc1OCCCn1c(C(C)O)nc2ccccc21 (stereo not drawn),8.71
15,CCOc1ccc(C(=O)/C=C/c2ccccc2F)cc1,-7.15
16,O=C1N/C(=C/c2ccccc2)C(=O)N1Cc1ccccc1F,6.18
17,COc1ccc(CCNC(=O)/C=C\C(=O)O)cc1OC,-2.26
18,CC(C)n1c(SCC(N)=O)nc2c(oc3ccccc32)c1=O,-5.54
19,Cn1c2c(c(=O)n(C)c1=O)CN(C1CCCCC1)CN2,-1.08
20,O=[N+]([O-])c1cccc(CN2CCN(c3cccc(C(F)(F)F)c3)CC2)c1,-1.92
21,O=C(Nc1ccccc1C#Cc1ccccc1)c1ccccc1F,2.91
22,O=C(COc1ccc(Br)cc1)Nc1ccc(S(=O)(=O)N2CCCC2)cc1,3.35
23,O=C(Nc1nccs1)c1cc2ccccc2c(=O)s1,-4.62
24,COc1ccc(-c2nnc(SC3CCOC3=O)n2-c2ccccc2)cc1 (stereo not drawn),4.61
25,O=C(CCCc1cn(Cc2ccccc2Cl)c2ccccc12)N1CCOCC1,4.07
26,Cc1cc(NS(=O)(=O)c2ccc(NC(=O)COc3ccccc3C(C)C)cc2)no1,8.45

row,Compound,% Inhibition @ 10 uM [%]
1,CCCNC(=O)C(C)SCc1ccccc1 (stereo not drawn),0.514
2,O=C(COc1ccccc1Cl)Nc1cnn(Cc2ccccc2)c1,-4.52
3,COc1ccccc1C(=O)Oc1cc(=O)oc2ccccc12,1.31
4,NC(=S)Nc1ccc2c(c1)Nc1ccccc1CC2,2.36
5,CC1Oc2ccc(C3=NNC(=O)CC3)cc2NC1=O (stereo not drawn),-0.123
6,CCc1ccccc1NC(=S)NC(=O)c1ccc(C)cc1,-1.62
7,CCc1ccc(C2c3c(oc4ccccc4c3=O)C(=O)N2c2nc(C)c(C(=O)OC)s2)cc1 (stereo not drawn),-1.86
8,CC(CC(NC(=O)c1ccc(-c2ccccc2Cl)cc1)C(=O)NCC#N)c1ccccc1 (stereo not drawn),0.174
9,CC(CCc1ccc(O)cc1)N1CCc2ccccc2C1 (stereo not drawn),5.37
10,CS(=O)(=O)N(CC(=O)N1CCOCC1)c1cccc(Cl)c1,3.24
11,CC(C)C(NS(=O)(=O)c1cccc2nsnc12)C(=O)Nc1nc2ccc(Cl)cc2s1 (stereo not drawn),-0.465
12,O=C(CN1C(=O)c2ccccc2S1(=O)=O)N1CCCC1,-4.19
13,CN(C(=O)c1cccc(C(=O)N(C)c2ccc(N)cc2)c1)c1ccc(N)cc1,-4.96
14,CN1CCN(CC(=O)Nc2ccc(OC(F)(F)F)cc2)CC1,4.09
15,CCn1nc(C)c(C2C(C#N)=C(N)Oc3[nH]nc(C)c32)c1C (stereo not drawn),-3.63
16,CC/N=C1\S/C(=C\c2cc(Br)c(O)c(OC)c2)C(=O)N1CC,-3.01
17,COc1ccc(-c2c(C)nn3c(N)c(C#N)cnc23)cc1OC,-1.11
18,Cc1ccccc1CN1CCN(c2ccccc2)CC1,-1.92
19,Cc1cc(C)cc(NC2=C(Cl)C(=O)N(c3ccccc3)C2=O)c1,1.03
20,COCCCNC(=O)c1cc2c(=O)n3ccccc3nc2n(C2CCCCC2)c1=N,0.279
21,Cc1ccccc1CNC(=O)c1oc2ccc3c(c2c1C)C(O)CC(C)(C)O3 (stereo not drawn),0.107
22,Cc1ccc(NC(=O)c2ccccc2Br)cc1C,-1.22
23,O=C(NCc1cccnc1)C1CCN(c2nc3ccccc3n3cccc23)CC1,-4.74
24,O=C(Nc1ccccc1O)c1ccc(Br)c(S(=O)(=O)N2CCCCC2)c1,-2.22
